In the supplement of paper PMC12217912:
This is one part of the list. Sequences were assembled here from the parent chain. Inactive controls read about 0.05.

B1: TEV protease; numbered along this chain (parent)
chain: MGESLFKGPRDYNPISSSICHLTNESDGHTTSLYGIGFGPFIITNKHLFRRNNGTLVVQSLHGVFKVKDTTTLQQHLVDGRDMIIIRMPKDFPPFPQKLKFREPQREERICLVTTNFQTKSMSSMVSDTSCTFPSGDGIFWKHWIQTKDGQCGSPLVSTRDGFIVGIHSASNFTNTNNYFTSVPKNFMELLTNQEAQQWVSGWRLNADSVLWGGHKVFMVKPEEPFQPVKEATQL

Variants of: B1
Experiment: raw area under fraction-flipped curve 0-4 h after induction (AUC4h, not background-subtracted), DNA-recorder readout of cleavage of the substrate (dimensionless); higher = more cleavage of the substrate by the protease variant
Settings: temperature: 34 °C; time window: 0-4 h after rhamnose induction
Description: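 In vivo DNA recorder in E. coli TOP10(DE3) ΔrhaA at 34 °C. Each TEVp single-site mutant (parent TEVp 0) is paired with a single-site variant of the 7-mer TEVs (canonical ENLYFQ|S). The substrate sits between flexible linkers in a Bxb1-sfGFP-TEVs-SsrA fusion, so cleavage stabilises Bxb1 and speeds flipping of a recombination array, read by NGS. The value is the raw area under the fraction-flipped curve over 0-4 h after rhamnose induction (AUC4h), with ≥20 reads per time point. It is not background-subtracted; inactive controls average about 0.047.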
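Also: Bxb1 expression induced with 0.2% (w/v) L-rhamnose at OD600 near 0.5, cultures sampled hourly, flipped fraction per protease–substrate barcode pair counted by paired-end Illumina sequencing.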

Variant	area with substrate ENAYFQS	area with substrate ENCYFQS	area with substrate ENDYFQS	area with substrate ENEYFQS	area with substrate ENFYFQS	area with substrate ENGYFQS	area with substrate ENHYFQS	area with substrate ENKYFQS	area with substrate ENNYFQS	area with substrate ENPYFQS	area with substrate ENQYFQS	area with substrate ENRYFQS	area with substrate ENSYFQS	area with substrate ENTYFQS	area with substrate ENVYFQS	area with substrate ENWYFQS	area with substrate ENYYFQS	area with substrate ENMYFQS	area with substrate ENIYFQS
H47M	0.057	0.0578	0.0589	0.0491	0.0524	0.0766	0.0593	0.0507	0.0655	0.0719	0.0496	0.0672	0.0687	0.0564	0.07	0.0551	–	–	–
H47P	0.0524	0.0631	0.0714	–	0.0695	0.0691	0.0593	0.059	0.0596	0.0568	0.0606	–	0.0665	–	0.0692	0.0482	0.144	–	–
R50E	0.0512	–	0.0531	0.0816	–	0.0594	0.0545	–	–	–	0.0674	0.0756	–	–	0.0649	0.079	0.0711	0.0604	–
R51F	0.0685	0.0601	0.0527	0.0594	0.0613	0.0553	0.0601	–	0.0595	0.0561	0.0498	0.058	0.0635	0.102	–	–	–	0.0911	0.108
N52D	0.0643	0.034	0.104	0.0635	0.0678	0.0583	0.0663	–	0.058	–	0.0608	0.0595	0.054	0.057	0.0708	–	–	–	0.0689
G54S	0.044	0.0725	0.0568	0.0657	–	–	0.054	0.0614	–	0.0413	–	0.0596	0.0571	0.047	0.0599	0.0332	0.0553	0.0676	0.0703
L56E	0.0374	0.045	0.0147	0.0625	–	0.0529	–	0.0493	0.0604	–	0.0444	0.05	0.0417	–	0.0512	0.031	0.0393	–	0.0423
V58F	0.0581	–	0.0752	0.0443	–	0.0496	–	–	–	–	–	–	–	–	–	0.0406	0.0404	–	0.0998
Q59F	0.0451	0.0701	–	0.0299	–	–	0.05	0.068	0.0855	–	0.0917	0.0617	0.0637	0.0698	0.0446	–	–	–	0.0841
Q59M	0.0596	0.0746	0.0481	0.0522	0.0615	0.035	0.0629	0.0379	0.0542	0.0622	0.0484	–	0.058	0.0638	–	–	0.0546	–	0.0824
S60M	0.0646	–	0.0592	0.0594	0.0642	0.0539	0.0652	0.0458	0.0558	0.0707	0.0616	0.0445	0.0618	0.0599	0.0869	–	–	0.0729	–
S60P	0.0473	0.0562	0.0502	0.0492	0.0542	–	0.0458	0.0396	0.0507	0.0521	0.051	0.053	0.0701	0.0543	0.0388	–	–	–	–
L61E	0.0704	–	0.0513	0.0617	0.0638	–	–	0.0743	0.0641	0.0748	0.0558	0.0511	0.0614	0.0603	–	–	–	0.0812	0.121
H62R	0.0644	0.0657	–	0.0658	0.074	–	–	0.0706	–	–	0.0553	0.0412	0.0914	0.0652	–	–	–	–	0.11
H62W	0.0567	–	0.064	0.0759	–	0.0554	0.0695	0.0759	0.0649	0.0653	0.0501	0.0679	–	0.0732	0.0704	0.0428	0.0572	0.0687	–
G63H	0.0994	0.0717	0.086	–	–	–	–	–	0.0667	0.0437	0.0597	–	0.0502	0.0541	0.0673	–	–	–	0.0813
F65M	0.0707	0.0633	0.062	0.0701	0.0416	0.0606	0.0801	0.0859	–	0.0559	0.0603	0.0433	0.0659	0.0578	0.0561	0.0706	–	0.0918	0.1
K68C	0.0584	0.0702	0.0605	0.0565	0.0588	0.0497	0.0543	0.0709	0.073	0.0559	–	–	0.0632	–	0.0988	–	–	0.0494	–
K68V	0.0664	0.0609	0.0594	0.068	0.0657	–	0.0537	0.081	–	0.0606	0.0594	0.0451	0.0925	0.0693	0.0767	–	–	–	0.0999
D69T	0.0811	0.0678	0.061	0.06	0.0541	0.0626	0.0559	0.0656	0.058	0.0573	0.0359	–	0.0689	0.07	0.0576	–	0.0517	–	–
T70G	0.0651	0.0755	0.058	–	0.0903	0.0457	0.0546	0.0467	0.0629	–	0.0659	–	–	–	0.0661	–	–	–	–
T70Q	0.0443	0.0692	–	0.0394	–	0.0602	0.0689	–	0.0815	–	0.0555	0.0546	0.028	0.057	–	–	–	0.0737	0.0791
L73S	0.0509	–	0.0628	0.0536	0.0577	–	0.0727	–	–	–	0.0612	0.0505	0.0548	–	–	–	0.0391	0.0633	–
L73T	0.0525	0.0616	0.0522	0.0551	0.0552	–	–	0.0694	0.0593	0.0503	0.0686	0.0605	0.0601	0.0522	0.0693	–	0.0557	0.0499	0.0685
L73W	0.066	–	–	0.0675	–	0.0651	–	–	0.046	0.0649	0.0562	–	0.0478	0.0318	0.0533	–	–	–	–
Q74C	0.0509	–	0.0635	0.0548	0.0717	0.0599	0.0471	0.0591	0.0642	–	0.058	0.0361	0.0564	0.0717	0.0791	–	–	–	–
